Measurements taken from the RNAGym collection of RNA variant scans (doi:10.7554/elife.90254).
Read counts are not given, so values of variants with three or more changes are uncertain.

B1: LINE1-mini (parent)
chain: GGCAGAGCUCAACACAGCGUGGCAAAGUGGCUGUGGCUAGACUGCC

Variants of: B1
Test: self-cleavage, relative activity (ratio to wild type); higher = more cleavage; in vitro, sequencing; the parent is a self-cleaving ribozyme

Q: For GGCAGAGCUCAACAUGGCGCGACAAAGUGGCUGUGGCUAGACUGCC [C15U A16G U20C G22A], which self-cleavage is on record?
A: 0.5

Q: Which self-cleavage does the source give for GGAAGAGCUCAACACAGCGUGUCAAAGUGGCUGUGGCCAGACUGCC [C3A G22U U38C] here?
A: 0.23

Q: Which self-cleavage does the source give for GGCAGGGCUCAUCACAGCGUGCAAAAGUGGCUGUGGCUAGUCUCCC [A6G A12U G22C C23A A41U G44C] here?
A: 0.01

Q: With GGCAGAGCUCAACACAGCGUGGAAAAGUGGCUGUGGCUAGCCUGCU [C23A A41C C46U] as the variant, how does the self-cleavage read?
A: 0.03

Q: For GCCAGCGCUCGACACAGCGUGGCAAAGUGGCUGUGGCUAGACUGCC [G2C A6C A11G], which self-cleavage is on record?
A: 0.01

Q: Which self-cleavage does the source give for GUCAGAGCUCAACACAGCGCGGGCAAGUGGCUGUGGCUAGACUGCC [G2U U20C C23G A24C] here?
A: 0.07

Q: Which self-cleavage does the source give for GGAAGAGUUCACCACAGCGUGGCAAAGUGUCUGUGGCUAGACAGCC [C3A C8U A12C G30U U43A] here?
A: 0.09

Q: Which self-cleavage does the source give for GGCAGAACUCAACACACCGUCGGACAGUGGCUGUGGCUAGACUGCC [G7A G17C G21C C23G A25C] here?
A: 0.18

Q: With GGCAGAGCUGAACACAGGGUGGCAAUGUGUCUGUGACUAGACUGCC [C10G C18G A26U G30U G36A] as the variant, how does the self-cleavage read?
A: 0

Q: With GGCAGAGCGCAACACUGCGUGGCGAAGUGGAUGUAGCUAGAGUGCC [U9G A16U A24G C31A G35A C42G] as the variant, how does the self-cleavage read?
A: 0.03

Q: For GGCAGAGCUCGACACAGCGCGUCAAAGUUGCUGUGGCUAGACUGCC [A11G U20C G22U G29U], which self-cleavage is on record?
A: 0.02

Q: Which self-cleavage does the source give for GUCAAAGCUCAAAACAGCGUGGCAAAGUGGCUGUAGCUAGACUGCC [G2U G5A C13A G35A] here?
A: 0.05

Q: For GGCAGACCUCAACGCAGCGUGGCAGAGAGGAUGUGUCUAGACUGCC [G7C A14G A25G U28A C31A G36U], which self-cleavage is on record?
A: 0

Q: Which self-cleavage does the source give for GGCAGAGCUCGACACAGCGUGCCAUAGUGGCUGUGGCUAGACCGCC [A11G G22C A25U U43C] here?
A: 0

Q: For GGCAGAGAUCAACACAGCGUGGCAUAGUGGCUGUGGCUAGAUUGCC [C8A A25U C42U], which self-cleavage is on record?
A: 0.24

Q: For GGCAGGGCUAAACACAGCGUGGUAAUGUGGCCGUGGCUAGACUGCC [A6G C10A C23U A26U U32C], which self-cleavage is on record?
A: 0.01

Q: Which self-cleavage does the source give for GGCAGAGCUCAACACAGCGUGGCAGAGUGGCUGUUGCUAGACUGUC [A25G G35U C45U] here?
A: 0.01

Q: Which self-cleavage does the source give for GGCAGAGCUCAACGCGGCGUGGCAAAUUGGCUGUGGCUAGACUGCC [A14G A16G G27U] here?
A: 0.08

Q: For GGCAGAGCUCAACAGAGCGUGGCAAAGUGGCUGUGGCUACUCUACC [C15G G40C A41U G44A], which self-cleavage is on record?
A: 0.01

Q: Which self-cleavage does the source give for GGCAGAGCUCACCACAGCGUGGCAAAUUGGCCGUGGCAAAACUGCC [A12C G27U U32C U38A G40A] here?
A: 0

Q: With CGCAGAGCUCAACACAGCCUGUCAAAGUGAAUGUGACUAGACUGCC [G1C G19C G22U G30A C31A G36A] as the variant, how does the self-cleavage read?
A: 0.04

Q: For GGCAGAGCUCAACACAGCGUGCCAAAGUUGCUGUUGCUAGACUGCC [G22C G29U G35U], which self-cleavage is on record?
A: 0.05

Q: For AACAGAGCUCAACGCAGCGGGGCAAACUCGCUGUGGCUAGGCUGCC [G1A G2A A14G U20G G27C G29C A41G], which self-cleavage is on record?
A: 0.03

Q: For GGCAGAGCUCAACACAGCGUUGCAAAAAGGAUGUGGCUAGACUGCC [G21U G27A U28A C31A], which self-cleavage is on record?
A: 0.66

Q: For GGCAGAGCGCAACACUGCGUGGAAAAGUGGCUGUGGUUAGACUGCC [U9G A16U C23A C37U], which self-cleavage is on record?
A: 0.01

Q: Which self-cleavage does the source give for GAGAGAGCUCAGCACAGCGUGGCAAAGUGGCUGUCGCUAGACUGCC [G2A C3G A12G G35C] here?
A: 0.22

Q: Which self-cleavage does the source give for GGCAGAGCUCUACACGGCGUGGCAAAGUGUCUGUGGCUGGACUGCC [A11U A16G G30U A39G] here?
A: 0.01

Q: For GGCGGAGCUCAACACAGCGUGGCAAAGUAGCUGUGGCUAUUCUGCC [A4G G29A G40U A41U], which self-cleavage is on record?
A: 0.17

Q: For GUCAGAGCUCAUCACAGCGAGGCAAAGUGGCUGUGGCUAGACUGCC [G2U A12U U20A], which self-cleavage is on record?
A: 0.05

Q: Which self-cleavage does the source give for GUCAGAGCUAAAUACAGCGUGGCAAAGUGGCUGUGGCUAGACUGCC [G2U C10A C13U] here?
A: 0.02

Q: For GGCAGAGCUGAACAAAGGGUGGCACAGUGGCUGUGGCUAGACAGCC [C10G C15A C18G A25C U43A], which self-cleavage is on record?
A: 0.01

Q: With GGCAGAGGUCAACAUAGCGUGGCAAAGUGACUGGGGCUAAACUGCC [C8G C15U G30A U34G G40A] as the variant, how does the self-cleavage read?
A: 0.02

Q: Which self-cleavage does the source give for GGCAGAGCUCAACAUAGCGUGGCAAAGUGGUUGUGGCUACACUCCA [C15U C31U G40C G44C C46A] here?
A: 0

Q: Which self-cleavage does the source give for GGCAGAGCUCAACAUACCGUGGCAAAGUGGCUGUGCCUAGCCUGCC [C15U G17C G36C A41C] here?
A: 0.07

Q: With GGCAGCGCUCAACACAGCGAGGCAAAGUGGCUGUGGCUUGACUAGC [A6C U20A A39U G44A C45G] as the variant, how does the self-cleavage read?
A: 0.11

Q: Which self-cleavage does the source give for GGCGGAGCUCAACACGGCUUGGCAAAGUGGCUGUGGCUACACUGCC [A4G A16G G19U G40C] here?
A: 0.03

Q: With GGCAGAGCUUAACACACCGUGGCACAGUGGAUGUGGCUAGACUGCC [C10U G17C A25C C31A] as the variant, how does the self-cleavage read?
A: 0.25

Q: With GGCAGAGCUCAACCCCGCGUGGCAAAGUAGCUAUGGCUAGACUGCC [A14C A16C G29A G33A] as the variant, how does the self-cleavage read?
A: 0.22

Q: Which self-cleavage does the source give for GGCAGAGCUAAACACAGCGUGGCAAAGUGGAUGUGGCUAGACUGCA [C10A C31A C46A] here?
A: 0.02

Q: For GGCAGAGCACAACUCAGCGUGGUAAAGUGGCUGUGGCUAGACUGCC [U9A A14U C23U], which self-cleavage is on record?
A: 0.05

Q: Which self-cleavage does the source give for GGCAGAGAUCACCACUGCGUGGCAAAGUGGCUGUGGCUAGAGUGCC [C8A A12C A16U C42G] here?
A: 0.1

Q: For UGCAGAGCUCAACACAGCGUGGCAAACUCACUGUGGCUAGACUGCC [G1U G27C G29C G30A], which self-cleavage is on record?
A: 0.93

Q: With GUCAGAGCUCAACACAGCGUGGCAAAGUGGCUGUGGCUAGAAUGCG [G2U C42A C46G] as the variant, how does the self-cleavage read?
A: 0.13

Q: With GGCAGAGCUCAACAAAGUGUGGCAAAGUGGUUGUGGCUAGACUGCC [C15A C18U C31U] as the variant, how does the self-cleavage read?
A: 0

Q: With GUCAGAGCUCAACACAGCGUGGCAAAGCGGCUGUGGCUUGACUGCC [G2U U28C A39U] as the variant, how does the self-cleavage read?
A: 0.13

Q: With GGCAGAGCUCAACACAGCGACGCAAAGUGGCUCUGGCUAGACGGCC [U20A G21C G33C U43G] as the variant, how does the self-cleavage read?
A: 0.02

Q: With GGCAGAGCUAAACACAGUGUGGCAAAGUGGCUGUGGCUAGCCUGCC [C10A C18U A41C] as the variant, how does the self-cleavage read?
A: 0.01

Q: With GGCAGAGCUCAACUCAGCCUGGCAAAGUGGCUGCGGUUAGACUGCC [A14U G19C U34C C37U] as the variant, how does the self-cleavage read?
A: 0.01

Q: With GGCAGAGCCCAACAGAGCGUGGCACAGUGGAUGUGGCUAGACUUCC [U9C C15G A25C C31A G44U] as the variant, how does the self-cleavage read?
A: 0

Q: Which self-cleavage does the source give for GGCAGAGCUCAACACAGCGUGUUUAAGUUGCUGUGGCUAGACUACC [G22U C23U A24U G29U G44A] here?
A: 0.12

Q: With GGCAGAGCUCAACACAGCGUGGCGAACUGGGUAUGCCUAGACUGCC [A24G G27C C31G G33A G36C] as the variant, how does the self-cleavage read?
A: 0.08

Q: Which self-cleavage does the source give for GUCAGAGCUCAACACAGGGUGGCAAAGUGGCCGUGGCUAGACUUCC [G2U C18G U32C G44U] here?
A: 0

Q: With GAAAGAGCUCAACACAGUGUGGCACAGUGGCUGUGGCUAGACUGCC [G2A C3A C18U A25C] as the variant, how does the self-cleavage read?
A: 0.17

Q: For GGCAGAGCUCCACAUAGCGUGACCAUGUGGCUGUGGCUAGACUGCC [A11C C15U G22A A24C A26U], which self-cleavage is on record?
A: 0.01

Q: For GGCAGAGCACACCACAGCGUGGCCAAGUGGCCGUGGCUAUACUGCC [U9A A12C A24C U32C G40U], which self-cleavage is on record?
A: 0.01

Q: With CGCAGAGCUCAACACAGCGUGGCAAAGUAACUGUGGCUACACUGCC [G1C G29A G30A G40C] as the variant, how does the self-cleavage read?
A: 0.02
